Results: a collection of fitness landscapes (doi:10.1016/j.celrep.2020.107928)
The full ranking holds about 81,000 sequences; the median of “one-hybrid fitness for binding NBS DNA” is about -0.1, and the highest 2% start at about 0.36. This is one part of the list.

B1: Caulobacter ParB omega fusion; a variant is named by its letters at X, in order, B8GW30 (parent)
chain: MESVVVGEPGMSEGRRGLGRGLSALLGEVDAAPAQAPGEQLGGSREAPIEILQRNPDQPRRTFREEDLEDLSNSIREKGVLQPILVRPSPDTAGEYQIVAGERAWRAAQRAGLKTVPIMVRELDDLAVLEIGIIENVQRADLNVLEEALSYKVLMEKFERTQENIAQTIGKSXSHVANXMRLLXLPDEVQSYLVSGELTAXHARAIAAAADPVALAKQIIEGGLSVRETEALARKAPNLSAGKSKGGRPPRVKDTDTQALESDLSSVLGLDVSIDHRGSTGTLTITYATLEQLDDLCNRLTRGI

Variants of: B1
Experiment: one-hybrid fitness for binding NBS DNA (the Noc-binding site; scaled: cognate 1, non-cognate 0); higher = stronger binding
Conditions: with NBS DNA site
Summary of the method: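 Fitness is the rescaled log change in variant-to-wild-type read ratio, measured by Illumina sequencing of plasmids before and after bacterial one-hybrid selection. The scale puts cognate at 1 and non-cognate at 0. Selection of Caulobacter ParB libraries, four specificity codons randomised, took place in E. coli USO with a HIS3 reporter, site 19 bp from the promoter, over 48 hours at 37°C on M9-minus-histidine with 0.1 mM IPTG and 5 mM 3-AT.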

Variant | one-hybrid fitness for binding NBS DNA
HAYT | ≤ 0.2
RGYC | ≤ 0.2
KIKY | ≤ 0.2
FVQI | ≤ 0.2
LPHG | ≤ 0.2
KTSM | ≤ 0.2
GYPM | ≤ 0.2
RWDN | ≤ 0.2
SICL | ≤ 0.2
IQDV | ≤ 0.2
LMLC | ≤ 0.2
PIYT | ≤ 0.2
EGQR | ≤ 0.2
VYNM | ≤ 0.2
IQSI | ≤ 0.2
AVWC | ≤ 0.2
LIST | ≤ 0.2
IEPM | ≤ 0.2
RFQD | ≤ 0.2
ALFS | ≤ 0.2
QKCS | 0.419

Variant | one-hybrid fitness for binding NBS DNA
RNQP | ≤ 0.2
YRMC | ≤ 0.2
MLSS | ≤ 0.2
WMIP | ≤ 0.2
HNSG | ≤ 0.2
MYNK | ≤ 0.2
WMHS | ≤ 0.2
QAQM | ≤ 0.2
PAPL | ≤ 0.2
QFHT | ≤ 0.2
RGTH | ≤ 0.2
LVHC | ≤ 0.2
REVS | ≤ 0.2
GCKT | ≤ 0.2
MWRY | ≤ 0.2
HQLA | ≤ 0.2
ELAR | ≤ 0.2
DVVD | ≤ 0.2
QCPG | ≤ 0.2
QCGC | 0.244
YRVG | ≤ 0.2

Variant | one-hybrid fitness for binding NBS DNA
SKYH | ≤ 0.2
LEKP | ≤ 0.2
KMVS | ≤ 0.2
GSCH | ≤ 0.2
TLTK | ≤ 0.2
ANHS | ≤ 0.2
PAYC | ≤ 0.2
SAHV | ≤ 0.2
CTVC | ≤ 0.2
NTTV | ≤ 0.2
VDLG | ≤ 0.2
PLGV | ≤ 0.2
RLMS | 0.269
TAFG | ≤ 0.2
TKWW | ≤ 0.2
EDTD | ≤ 0.2
ICRM | ≤ 0.2
QIQG | ≤ 0.2
LIPM | ≤ 0.2
EPGT | ≤ 0.2
MIQT | ≤ 0.2

Variant | one-hybrid fitness for binding NBS DNA
RIQA | ≤ 0.2
KCRF | ≤ 0.2
QDVL | ≤ 0.2
HATH | ≤ 0.2
PYWR | 0.235
VMTI | ≤ 0.2
KNQP | ≤ 0.2
GNTN | ≤ 0.2
RPIV | ≤ 0.2
AGGW | ≤ 0.2
GLPD | ≤ 0.2
AFPV | ≤ 0.2
MRYI | ≤ 0.2
VQHS | ≤ 0.2
PPPG | ≤ 0.2
IWNL | ≤ 0.2
ACFK | ≤ 0.2
FVNA | ≤ 0.2
NLVG | ≤ 0.2
SFWG | ≤ 0.2
DCKR | 0.337
